Out of some 360,000 compounds screened, about 25,000 (6.9%) were called active. The inconclusive results got no clear call from the source; some entries with a clear call stand among them for comparison. Calls come from the whole dose curve; as a rule, active = well fitted inhibition curve with a large enough effect; inconclusive = small, poorly fitted or top-dose-only effect; inactive = flat fitted curve, though single readings scatter. Potencies of inconclusive entries are doubtful fits and often do not repeat.
The compounds below were run against Luciferin 4-monooxygenase (Photinus pyralis) (UniProt P08659) (assay: qHTS profiling assay for firefly luciferase inhibitor/activator using purifed enzyme and Km concentrations of substrates (counterscreen for miR-21 project)). Conditions: purified FLuc, luminescence inhibition; series mostly up to 57.5 µM.
UniProt P08659, sequence (P08659 whole entry, looked up): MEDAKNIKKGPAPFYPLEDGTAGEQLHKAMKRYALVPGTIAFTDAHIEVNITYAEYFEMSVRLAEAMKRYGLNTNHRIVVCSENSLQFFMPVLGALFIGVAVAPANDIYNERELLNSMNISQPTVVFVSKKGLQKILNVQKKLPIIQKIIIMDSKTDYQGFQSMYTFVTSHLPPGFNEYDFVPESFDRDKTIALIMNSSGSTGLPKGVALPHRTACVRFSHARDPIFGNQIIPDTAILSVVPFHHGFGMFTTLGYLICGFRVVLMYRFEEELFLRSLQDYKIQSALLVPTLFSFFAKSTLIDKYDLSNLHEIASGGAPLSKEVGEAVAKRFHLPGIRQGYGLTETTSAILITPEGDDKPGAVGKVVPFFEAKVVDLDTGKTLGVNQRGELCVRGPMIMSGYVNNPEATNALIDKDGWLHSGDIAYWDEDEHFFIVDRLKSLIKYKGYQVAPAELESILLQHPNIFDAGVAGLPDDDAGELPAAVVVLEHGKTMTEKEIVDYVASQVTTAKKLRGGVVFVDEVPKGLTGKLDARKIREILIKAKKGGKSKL
How it was run: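 Purified P. pyralis luciferase, 10 nM final, with Km-level 10 uM D-luciferin and 10 uM ATP in 50 mM Tris acetate pH 7.5, 10 mM Mg acetate, 0.01% Tween-20, 0.05% BSA; 6-point qHTS titration about 60 µM downward; luminescence read.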
Note: nearly all actives have a fitted effect of over 55% in size.
Potency is the fitted concentration of half-maximal effect; tags give direction and shape of the fitted curve.

Q: `Cc1ccc(CSCc2ccc(C(=O)NC3CC3)o2)cc1` was tested. Which Potency did it give?
A: Its Potency is inconclusive: 37.9 µM [inhibitor, partial curve, poor fit].

Q: With `CCCn1c(C)cc(/C=C(\C#N)C(=O)OCC(=O)Nc2ccc(OC)c(Cl)c2)c1C` as the compound, how does the Potency read?
A: Its Potency is inconclusive: 3.38 µM [inhibitor, partial curve, poor fit].

Q: How did the Potency turn out when `O=C(NNC(=O)c1ccc(Br)s1)c1cccc(S(=O)(=O)N2CCCC2)c1` was run?
A: The Potency was inconclusive: 37.9 µM [inhibitor, partial curve, poor fit].

Q: Which Potency does the source give for `CCOc1ccc(C(C)=O)cc1CN1C(=O)c2ccccc2S1(=O)=O` here?
A: Its Potency is “inactive”.

Q: Which Potency does the source give for `Cc1ccnc(NC(=O)c2cccc(S(=O)(=O)N3CCCc4ccccc43)c2)c1` here?
A: The Potency was active: 4.78 µM.

Q: With `CC(=O)Nc1ccc(NC(=O)CCN2C(=O)C3CC=CCC3C2=O)cc1` (configuration not stated) as the compound, how does the Potency read?
A: The Potency was “inactive”.

Q: How did the Potency turn out when `COc1ccc(S(=O)(=O)n2[nH]c(=O)c(CCO)c2C)cc1` was run?
A: The Potency was “inactive”.

Q: How did the Potency turn out when `O=C(Nc1ccc2c(c1)C(=O)N(CC1CCCO1)C2=O)c1ccccc1Br` (configuration not stated) was run?
A: Its Potency is inconclusive: 23.9 µM [inhibitor, partial curve, poor fit].

Q: With `COc1ccc(/C=N/NC(=O)c2nn(-c3ccc(C)c(C)c3)c(=O)c3ccccc23)cc1` as the compound, how does the Potency read?
A: Its Potency is inconclusive: 3.01 µM [inhibitor, full curve].

Q: Which Potency does the source give for `Cc1cccc2sc(N3CCN(C(=O)CS(=O)(=O)c4ccc(F)cc4)CC3)nc12` here?
A: Its Potency is inconclusive: 37.9 µM [inhibitor, single point].

Q: For `Cc1ccc(C(=O)O)cc1-n1c(C)ccc1-c1ccccc1`, which Potency is on record?
A: The Potency was inconclusive: 26.9 µM [inhibitor, partial curve, poor fit].

Q: How did the Potency turn out when `O=C(Nc1cccc(-c2cnc3ccccc3n2)c1)c1ccncc1` was run?
A: The Potency was inconclusive: 19 µM [inhibitor, partial curve].

Q: `CCOC(=O)c1c(C)[nH]c(C(=O)COC(=O)C2=NNC(=O)CC2)c1C` was tested. Which Potency did it give?
A: The Potency was inconclusive: 37.9 µM [inhibitor, partial curve, poor fit].

Q: `O=c1nc2c(-c3ccc(F)cc3Cl)n[nH]n2c2ccccc12` was tested. Which Potency did it give?
A: The Potency was inconclusive: 21.3 µM [inhibitor, partial curve].

Q: Which Potency does the source give for `O=C(CCSCc1ccccc1Cl)NCc1ccco1` here?
A: Its Potency is inconclusive: 37.9 µM [inhibitor, partial curve, poor fit].

Q: For `CCOc1ccc(/C(CCC(=O)O)=N/NC(=S)NCCc2ccccc2)cc1`, which Potency is on record?
A: Its Potency is inconclusive: 37.9 µM [inhibitor, single point].

Q: `Cc1cc(/C=N/Nc2nc(N3CCOCC3)nc(N3CCOCC3)n2)c(C)n1-c1ccccc1` was tested. Which Potency did it give?
A: The Potency was inconclusive: 23.9 µM [inhibitor, single point].

Q: Which Potency does the source give for `COc1ccc(-c2csc(Nc3ccc(S(N)(=O)=O)cc3)n2)cc1` here?
A: Its Potency is inconclusive: 23.9 µM [inhibitor, partial curve, poor fit].

Q: How did the Potency turn out when `O=C(NC(=S)NCC1CCCO1)c1ccc(Cl)cc1Cl` (configuration not stated) was run?
A: Its Potency is “inactive”.

Q: How did the Potency turn out when `Cc1ccc(-c2cc(C(=O)N/N=C/c3c(C)nn(C)c3C)c3ccccc3n2)c(C)c1` was run?
A: Its Potency is inconclusive: 37.9 µM [inhibitor, partial curve, poor fit].

Q: Which Potency does the source give for `Cc1c(C(=O)OCC2CCCCC2)[nH]c2c1C(=O)CC(c1ccc(F)cc1)C2` (configuration not stated) here?
A: Its Potency is “inactive”.

Q: `COc1ccc(OC)c(-n2nnnc2SCC(=O)Nc2ccc(C(=O)N3CCCCC3)cc2)c1` was tested. Which Potency did it give?
A: The Potency was “inactive”.

Q: How did the Potency turn out when `COc1ccccc1/C=C/C(=O)NCC(=O)N/N=C/c1ccc(C(=O)O)cc1` was run?
A: The Potency was inconclusive: 37.9 µM [inhibitor, partial curve, poor fit].

Q: For `CN(C)C(=O)[C@H]1C[C@H]1[C@@H](O)[C@H](CO)NC(=O)[C@H](Cc1ccccc1)NC(=O)OC(C)(C)C`, which Potency is on record?
A: Its Potency is “inactive”.

Q: Which Potency does the source give for `COC(=O)Cc1sc(-c2ccccn2)nc1-c1ccccc1` here?
A: Its Potency is inconclusive: 23.9 µM [inhibitor, single point].

Q: How did the Potency turn out when `O=C(CCN1C(=O)c2ccccc2C1=O)NCCCn1ccnc1` was run?
A: The Potency was “inactive”.

Q: For `O=C(O)c1cc([N+](=O)[O-])ccc1N1CCCCC1`, which Potency is on record?
A: Its Potency is “inactive”.

Q: `CC(=O)N1c2ccc(S(=O)(=O)NCCC(=O)Nc3ccc(F)cc3C)cc2CC1C` (configuration not stated) was tested. Which Potency did it give?
A: The Potency was “inactive”.

Q: With `CCOc1ccccc1CNC(=O)C(C)n1nc(C)c2c(C)n(-c3ccccc3)nc2c1=O` (configuration not stated) as the compound, how does the Potency read?
A: Its Potency is “inactive”.

Q: `Cc1ccc(NC(=O)c2ccc(OC(=O)COc3ccc(Cl)c(C)c3)cc2)cc1` was tested. Which Potency did it give?
A: The Potency was inconclusive: 6.75 µM [inhibitor, full curve].

Q: For `CC(C)NC(=O)c1ccc(C(C)C)cc1`, which Potency is on record?
A: Its Potency is inconclusive: 26.9 µM [inhibitor, single point].

Q: `Cc1nn(-c2ccccc2)c2nc(N)c(C(N)=O)cc12` was tested. Which Potency did it give?
A: Its Potency is inconclusive: 37.9 µM [inhibitor, partial curve, poor fit].

Q: For `Cc1cccc(C(=O)N2CCc3cc(CNC(=O)c4ccc(Br)o4)ccc32)c1`, which Potency is on record?
A: The Potency was “inactive”.

Q: `CCn1cc(Cl)c(C(=O)Nc2cccc(C(F)(F)F)c2)n1` was tested. Which Potency did it give?
A: Its Potency is inconclusive: 30.1 µM [inhibitor, single point].

Q: For `CC(C)C(NC(=O)c1ccco1)C(=O)OCc1cc([N+](=O)[O-])cc2c1OCOC2` (configuration not stated), which Potency is on record?
A: Its Potency is inconclusive: 37.9 µM [inhibitor, partial curve, poor fit].

Q: For `O=C(/C=C/c1ccc2c(c1)OCO2)N1CCOCC1`, which Potency is on record?
A: Its Potency is active: 16.9 µM.

Q: How did the Potency turn out when `COc1ccc(NC(=O)CN(C)S(=O)(=O)c2ccccc2)cc1` was run?
A: Its Potency is inconclusive: 37.9 µM [inhibitor, partial curve, poor fit].

Q: Which Potency does the source give for `O=C(Nc1nnc(-c2ccc(F)cc2)o1)c1cccc([N+](=O)[O-])c1` here?
A: The Potency was inconclusive: 23.9 µM [inhibitor, partial curve, poor fit].

Q: `CCc1cc(C(=O)N/N=C/c2c(C)[nH]c3ccccc23)cs1` was tested. Which Potency did it give?
A: The Potency was inconclusive: 23.9 µM [inhibitor, single point].

Q: `COc1ccc2nc(N(CCN(C)C)C(=O)c3ccc4c(c3)OCCO4)sc2c1` was tested. Which Potency did it give?
A: Its Potency is inconclusive: 21.3 µM [inhibitor, partial curve].

Q: For `Cc1cc(=O)oc2cc(OCC(=O)OCC(=O)Nc3ccc(C(C)C)cc3)ccc12`, which Potency is on record?
A: Its Potency is inconclusive: 21.3 µM [inhibitor, partial curve, poor fit].

Q: With `Cc1cccc(Nc2c(-c3cccs3)nc3nc(C)cc(C)n23)c1` as the compound, how does the Potency read?
A: The Potency was inconclusive: 23.9 µM [inhibitor, partial curve].
